Laboratory results published in PubChem BioAssay (Tox21).
This list was built around the results that the source calls inconclusive (neither active nor inactive); the mix of calls is not that of the screen. Potencies beside an inconclusive call are fits to weak or partial responses and may not hold up. Calls of active or inactive are those of the source. Unless noted, calls come from the whole dose curve; as a rule, active = well fitted curve in the direction sought with a large enough effect in the repeat runs; inconclusive = weak or mixed curves; inactive = no such curve, though single readings can be large; an effect the other way counts as inactive or inconclusive.

Assays:
[1] = qHTS assay to identify small molecule antagonists of the peroxisome proliferator-activated receptor gamma (PPARg) signaling pathway - cell viability counter screen (AID 743194); details: PPARg-bla HEK293H viability, CellTiter-Glo luminescence, 17 h; Potency: co-treated with 50 nM rosiglitazone unless noted; activity change, negative = cytotoxicity: at 62.6 µM (top of the series), co-treated with 50 nM rosiglitazone unless noted; note: nearly all actives have a fitted effect of over 55% in size; for activity change, negative = cytotoxicity: % is set by controls: 0 for no effect and ±100 for the full control effect
Outline: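 Cytotoxicity counter screen in PPARg-bla HEK293H cells, same wells as reporter assay. Compounds plus 50 nM rosiglitazone (final) for 17 h at 37 C, then viability read by CellTiter-Glo luminescence.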

[2] = qHTS assay for small molecule agonists of the antioxidant response element (ARE) signaling pathway (AID 743202; active = well fitted activation curve with a large enough effect in the signal ratio in the repeat runs, not every such curve was filed as active; inconclusive = weak or mixed curves, or effect the other way; inactive = no such curve, though single readings can be large or run the other way; the % refers to the signal ratio; for activation: % is set by controls: 0 for no effect and ±100 for the full control effect); details: HepG2 ARE-bla reporter, beta-lactamase FRET, 16 h; activation: at 73.3 µM (top of the series) unless noted
Outline: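 Agonist mode reporter screen: HepG2 cells with ARE-controlled beta-lactamase are incubated with test compounds for 16 h at 37 C, and beta-lactamase activity is measured as fluorescence of cleaved B/G FRET substrate.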

[3] = qHTS assay for small molecule activators of the heat shock response signaling pathway - cell viability counter screen (AID 743209); details: HSE-bla HeLa viability, CellTiter-Glo luminescence, 5 h; activity change, negative = cytotoxicity: at 62.6 µM (top of the series) unless noted; note: nearly all actives have a fitted effect of over 50% in size
Outline: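 First, HSE-bla HeLa cells were seeded at 1500 cells/well and kept overnight at 37 C. Next, compounds were pinned in and incubated 5 h. After the FRET substrate step, CellTiter-Glo was added and luminescence read 30 min later.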

[4] = qHTS assay for small molecule activators of the heat shock response signaling pathway (AID 743210; active = well fitted activation curve with a large enough effect in the signal ratio in the repeat runs, with a control signal flat, not every such curve was filed as active; inconclusive = weak or mixed curves; the % refers to the signal ratio); details: HeLa HSE-bla reporter, beta-lactamase ratio, 5 h; activation: at 62.6 µM (top of the series) unless noted
Outline: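 Quantitative high-throughput format using an engineered HeLa line in which heat shock response elements drive beta-lactamase; after 5 h with compound, cells received a B/G FRET substrate and fluorescence was read.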

[5] = qHTS assay to identify small molecule agonists of the peroxisome proliferator-activated receptor delta (PPARd) signaling pathway - cell viability counter screen (AID 743211); details: PPARd-bla HEK293H viability, CellTiter-Glo luminescence, 17 h; activity change, negative = cytotoxicity: at 62.6 µM (top of the series); note: nearly all actives have a fitted effect of over 55% in size
Outline: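 HEK293H PPARd-bla, 3000 cells/well; 5 h preincubation 37C/5% CO2; cpd in DMSO, 17 h 37C; B/G FRET substrate 2 h RT; CellTiter-Glo 30 min RT, luminescence.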

[6] = target: Peroxisome proliferator-activated receptor delta (Homo sapiens) (UniProt Q03181); assay: qHTS assay to identify small molecule agonists of the peroxisome proliferator-activated receptor delta (PPARd) signaling pathway (AID 743212; calls by dose curve;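 note: HEK293H cells with PPARd UAS beta-lactamase reporter GeneBLAzer system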; for activation: % is set by controls: 0 for no effect and ±100 for the full control effect); details: HEK293H PPARd-UAS-bla, beta-lactamase FRET ratio, 17 h; activation: at 62.6 µM (top of the series) unless noted
UniProt Q03181, sequence (Q03181 whole entry, looked up): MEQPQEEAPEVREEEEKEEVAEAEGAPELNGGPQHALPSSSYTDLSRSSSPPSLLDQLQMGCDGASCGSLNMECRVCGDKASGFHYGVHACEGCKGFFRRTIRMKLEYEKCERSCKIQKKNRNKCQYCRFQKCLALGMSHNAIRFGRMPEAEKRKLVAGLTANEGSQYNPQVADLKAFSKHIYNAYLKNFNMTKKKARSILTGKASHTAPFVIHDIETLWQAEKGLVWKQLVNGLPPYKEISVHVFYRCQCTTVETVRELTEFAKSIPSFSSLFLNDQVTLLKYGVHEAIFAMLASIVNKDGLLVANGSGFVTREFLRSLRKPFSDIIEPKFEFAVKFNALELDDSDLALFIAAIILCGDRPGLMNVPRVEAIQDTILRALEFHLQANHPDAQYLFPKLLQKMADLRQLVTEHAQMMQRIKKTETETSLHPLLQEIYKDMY
Outline: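 Quantitative high-throughput agonist screen in a HEK293H beta-lactamase reporter line under UAS control. Compounds in DMSO, at 37 C. Fluorescence read after 2 h with FRET substrate at room temperature.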

[7] = target: Peroxisome proliferator-activated receptor delta (Homo sapiens) (UniProt Q03181); assay: qHTS assay to identify small molecule antagonists of the peroxisome proliferator-activated receptor delta (PPARd) signaling pathway (AID 743215; active = well fitted inhibition curve with a large enough effect in the signal ratio in the repeat runs, not every such curve was filed as active; inconclusive = weak or mixed curves, or effect the other way; inactive = no such curve, though single readings can be large or run the other way; the % refers to the signal ratio;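 note: cells stimulated with agonist L165041 at 300 nM final during compound exposure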); details: HEK293H PPARd-UAS-bla, beta-lactamase FRET ratio, antagonist, 17 h; ratio activity, negative = inhibition: at 62 µM (top of the series) unless noted
Outline: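 Inhibition of L165041-driven (300 nM final) PPARd signaling is scored in HEK293H UAS-bla cells. Exposure lasts 17 h at 37 C; beta-lactamase activity is then read by FRET substrate fluorescence after 2 h at room temperature.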

[8] = qHTS assay for small molecule agonists of the antioxidant response element (ARE) signaling pathway - cell viability counter screen (AID 743203; calls by dose curve; note: nearly all actives have a fitted effect of over 55% in size; for viability change, negative = cytotoxic: % is set by controls: 0 for no effect and ±100 for the full control effect); details: ARE-bla HepG2 viability, CellTiter-Glo luminescence, 16 h; viability change, negative = cytotoxic: at 73.3 µM (top of the series)
Outline: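 Seeded at 2,000 cells/well, ARE-bla HepG2 cells were incubated 5 hrs before compound addition. After 16 hrs of treatment at 37C with 5% CO2, CellTiter-Glo reagent was added and luminescence read 30 min later.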

[9] = qHTS assay to identify small molecule antagonists of the peroxisome proliferator-activated receptor delta (PPARd) signaling pathway - cell viability counter screen (AID 743213); details: PPARd-bla HEK293H viability, CellTiter-Glo luminescence, 17 h; viability change, negative = cytotoxic: at 62 µM (top of the series) unless noted; note: nearly all actives have a fitted effect of over 50% in size
Outline: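 Luminescence from CellTiter-Glo, added after the bla read and incubated 30 min at room temperature, gives viability of HEK293H PPARd-bla cells exposed to compounds for 17 h at 37 C with 300 nM L165041.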

[10] = target: Bile acid receptor (Homo sapiens) (UniProt Q96RI1); assay: qHTS assay to identify small molecule antagonists of the farnesoid-X-receptor (FXR) signaling pathway (AID 743217; active = well fitted inhibition curve with a large enough effect in the signal ratio in the repeat runs, not every such curve was filed as active; inconclusive = weak or mixed curves, or effect the other way; inactive = no such curve, though single readings can be large or run the other way; the % refers to the signal ratio); details: HEK293T FXR-UAS-bla, beta-lactamase ratio, CDCA-stimulated, 16 h; activity change, negative = inhibition: at 62.6 µM (top of the series) unless noted
UniProt Q96RI1, sequence (Q96RI1 whole entry, looked up): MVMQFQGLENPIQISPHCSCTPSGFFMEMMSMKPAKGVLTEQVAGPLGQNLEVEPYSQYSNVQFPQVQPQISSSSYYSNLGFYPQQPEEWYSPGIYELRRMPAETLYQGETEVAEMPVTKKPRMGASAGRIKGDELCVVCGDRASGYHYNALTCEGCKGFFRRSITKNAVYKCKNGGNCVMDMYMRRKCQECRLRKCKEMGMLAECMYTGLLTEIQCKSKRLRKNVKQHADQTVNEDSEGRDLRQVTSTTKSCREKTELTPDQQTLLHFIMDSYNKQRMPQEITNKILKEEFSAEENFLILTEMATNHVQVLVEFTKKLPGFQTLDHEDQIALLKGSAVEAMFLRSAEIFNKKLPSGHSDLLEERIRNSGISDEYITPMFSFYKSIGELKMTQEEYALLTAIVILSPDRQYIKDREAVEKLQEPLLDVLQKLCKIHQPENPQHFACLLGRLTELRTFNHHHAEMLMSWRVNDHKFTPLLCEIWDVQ
Outline: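 Antagonist mode against 50 uM (final) chenodeoxycholic acid stimulation in FXR-bla HEK 293T cells, 16 h at 37 °C. Inhibition detected as reduced beta-lactamase activity via LiveBLAzer B/G FRET fluorescence after 2 h at room temperature.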
Potency is the fitted concentration of half-maximal effect; tags give direction and shape of the fitted curve or compound fluorescence and quenching.

CC(=O)O[C@H]1CC[C@@]2(C)C(=CC[C@@H]3[C@@H]2CC[C@]2(C)C(=O)CC[C@@H]32)C1
active: Potency [2] 48.6 µM
inactive: Potency [1]
inconclusive: Potency [3] 49 µM [cytotoxic, partial curve, poor fit] | Potency [4] 61.7 µM | Potency [5] 54.9 µM [cytotoxic]

O=C(Nc1ccccc1-c1ccc(Cl)cc1)c1cccnc1Cl
inconclusive: Potency [1] 8.23 µM [cytotoxic] | Potency [2] 64.8 µM | Potency [3] 34.4 µM [cytotoxic, partial curve, poor fit] | Potency [4] 61.7 µM [rising, single point] | Potency [5] 29.2 µM [cytotoxic, partial curve, poor fit] | Potency [6] 0.412 µM [rising, full curve, poor fit] | Potency [7] 0.292 µM [fluorescent, full curve, poor fit]

CN1CCc2cc3c(cc2C1O)OCO3 (stereo unspecified)
active: Potency [4] 39.1 µM
inconclusive: Potency [2] 61.5 µM | Potency [6] 55.3 µM [rising, single point] | Potency [9] 0.0028 µM [cytotoxic, full curve, poor fit] | Potency [7] 55.3 µM [fluorescent]
inactive: Potency [1] | Potency [8]

COc1cc(OC)c(OC)cc1C=O
inconclusive: Potency [1] 0.212 µM [rising, full curve, poor fit] | activation [2] 19.6% | Potency [3] 59.8 µM [cytotoxic, single point] | Potency [4] 55.4 µM [activator] | Potency [5] 21.2 µM [cytotoxic, partial curve, poor fit]

Oc1ccc(C2(c3ccc(O)cc3)CCCCC2)cc1
active: Potency [1] 41.3 µM | Potency [9] 46.4 µM | Potency [7] 46.4 µM
inconclusive: Potency [2] 65 µM | Potency [3] 58.4 µM [cytotoxic, single point] | Potency [4] 56.2 µM | Potency [10] 52.1 µM

c1cc[c]([Hg][c]2ccccc2)cc1
inconclusive: Potency [1] 49 µM [cytotoxic, partial curve, poor fit] | activation [2] 27.8% | Potency [8] 61.1 µM [cytotoxic, single point] | Potency [5] 43.6 µM [cytotoxic, partial curve] | ratio activity, negative = inhibition [7] 10.4%
inactive: Potency [6]

CCC(C)c1cc([N+](=O)[O-])cc([N+](=O)[O-])c1OC(=O)C=C(C)C (stereo unspecified)
inconclusive: Potency [2] 8.63 µM [falling, partial curve, poor fit] | Potency [4] 36 µM | Potency [5] 38.9 µM [cytotoxic, partial curve, poor fit] | Potency [6] 6.16 µM [rising, full curve] | Potency [7] 21.9 µM | Potency [10] 49 µM [partial curve]
active: Potency [1] 54.9 µM | Potency [8] 27.3 µM

CCOc1cc(C(C)(C)C)ccc1C1COC(c2c(F)cccc2F)=N1 (stereo unspecified)
inconclusive: Potency [8] 46.7 µM [cytotoxic] | Potency [4] 37.4 µM [partial curve, poor fit] | Potency [6] 33.4 µM | Potency [10] 18.8 µM [rising, partial curve, poor fit]
active: Potency [1] 11.8 µM | Potency [2] 5.88 µM | Potency [9] 33.4 µM | Potency [7] 29.7 µM

Cc1ccc([N+](=O)[O-])[c]2c1[O][Hg]2
active: Potency [1] 2.98 µM | Potency [8] 4.22 µM | Potency [6] 29.8 µM | Potency [9] 5.96 µM
inconclusive: Potency [2] 5.31 µM [falling, full curve] | Potency [4] 5.11 µM | ratio activity, negative = inhibition [7] -18.2% [cytotoxic] | Potency [10] 0.841 µM [rising, partial curve]
